Measurements from US7741244B2, “Fungicide compositions” (priority 2002, dated 2010).

Columns and labels:
[1] = system: Botrytis cinerea (primary), Rhizopus (secondary); test: Inhibition of fungus infection on strawberries, dip (Example 4); format: in vivo
Source text: (§1) Strawberries were harvested from the four separated areas.

[2] = system: Botrytis cinerea (primary), Rhizopus (secondary); test: Inhibition of fungus infection on strawberries, dip (Example 5); settings: 60 s dip
Source text: as §1

Question: Which results are given for `O=C(O)CO` [glycolic acid]?
Answer: inhibition of fungal infection of strawberries (in words) ([1]; only glycolic acid used): No inhibition; Infected berries (% of total) Day 3 ([1]; strawberries (Northeaster), 60 s dip, day 3 after treatment): 75%; Infected berries (% of total) Day 4 ([1]; strawberries (Northeaster), 60 s dip, day 4 after treatment): 90%; Infected berries (% of total) Day 5 ([1]; strawberries (Northeaster), 60 s dip, day 5 after treatment): 100%; Infected berries (% of total) Day 6 ([1]; strawberries (Northeaster), 60 s dip, day 6 after treatment): 100%; Infected berries (% of total) Day 7 ([1]; strawberries (Northeaster), 60 s dip, day 7 after treatment): 100%; Infected berries (% of total) Day 2 ([2]; day 2 after treatment): 70%; Infected berries (% of total) Day 3 ([2]; day 3 after treatment): 95%; Infected berries (% of total) Day 4 ([2]; day 4 after treatment): 100%
